Measurements: ChEMBL document CHEMBL4888484, “Replenishing the malaria drug discovery pipeline: Screening and hit evaluation of the MMV Hit Generation Library 1 (HGL1) against asexual blood stage Plasmodium falciparum ,using a nano luciferase reporter read-out” (2022)
The campaign covered roughly 150,000 compounds. About 540 (0.36%) showed an effect of 50% or more. The list shows a part of the results.

test system: Plasmodium falciparum; assay: Primary screen in NF54 nanoGlo assay, in single point, at 2uM, 72h; a lower Z score goes with more inhibition; type: functional, Erythrocyte; details: timepoint 72 hour

What does the source list for O=C(CN1CCN(Cc2ccccc2)CC1)NCc1ccco1?
% Inhibition: 0%; Z score: 0.04

Which “% Inhibition” value does the source give for COc1ccc(S(=O)(=O)N2CCC(n3c(C)nc4cc(C(=O)N(C)C)ccc43)CC2)cc1 here?
Its value is 5%.

What about the Z score of the same compound?
Its Z score is -0.87.

With CC1CN(C(=O)c2ccccc2)OC(c2ccc(Cl)cc2Cl)O1 (centres undefined) as the compound, how does the “% Inhibition” value read?
Its value is -3%.

And the Z score?
The Z score was 0.48.

Which “% Inhibition” value does the source give for CCNc1nc(C)c(C(=O)N[C@H]2CC(C)(C)Oc3cc(OC)ccc32)s1 here?
The value was -8%.

And the Z score?
Its Z score is 1.05.

Which “% Inhibition” value does the source give for C[C@H]1CCCCN1CCNC(=O)c1ccc(-c2ccnc(N3CCCC3)n2)cc1 here?
The value was -13%.

And the Z score?
The Z score was 1.69.

Which results are given for C#CCCCCNC(=O)C(C)N1C(C)CCC1C (centres undefined)?
% Inhibition: -7%; Z score: 1.02

Which “% Inhibition” value does the source give for S=c1sc2c(N3CCc4ccccc43)ncnc2n1-c1ccccc1 here?
The value was -3%.

What about the Z score of the same compound?
Its Z score is 0.62.

With O=C(CN1CN(c2ccccc2)C2(CCN(S(=O)(=O)c3ccccc3)CC2)C1=O)NCCc1ccccc1 as the compound, how does the “% Inhibition” value read?
Its value is -3%.

And the Z score?
Its Z score is 0.46.

For O=C(CCc1cc(O)no1)N[C@H]1CCOC[C@@H]1O, which “% Inhibition” value is on record?
The value was 6%.

What about the Z score of the same compound?
The Z score was -0.73.

Which results are given for CC1CCCN(C2(N3CCCC(C)C3)C(=O)Nc3ccc(F)cc32)C1 (centres undefined)?
% Inhibition: 32%; Z score: -1.76

With CCCCOCC(=O)Nc1c(N(C)C)cccc1S(=O)(=O)N(C)C as the compound, how does the “% Inhibition” value read?
The value was 7%.

What about the Z score of the same compound?
The Z score was -0.85.

COc1cc(C)c(-c2cncc([C@H]3OCC[C@@H]3C(=O)O)c2)c(C)c1 was tested. Which “% Inhibition” value did it give?
The value was -5%.

And the Z score?
Its Z score is 0.64.

Which results are given for Cc1nc(CN(C(=O)c2ncc(C(N)=O)cc2Cl)c2ccc(F)cc2)cs1?
% Inhibition: -12%; Z score: 1.6

Which results are given for O=C(c1cccc(S(=O)(=O)NC2CC2)c1)N1CC2(CCOC2)C1?
% Inhibition: 1%; Z score: -0.25

O=C(CC[C@H]1CCCN(Cc2c[nH]cn2)C1)N1CCN(c2ccccn2)CC1 was tested. Which “% Inhibition” value did it give?
The value was -1%.

And the Z score?
Its Z score is 0.18.

With O=C(NCCn1cc(-c2ccncc2)cn1)c1ccncc1 as the compound, how does the “% Inhibition” value read?
The value was 19%.

And the Z score?
Its Z score is -2.44.

With CO[C@@]1(C(=O)NC23CCC(CC2)CC3)CCOC1 as the compound, how does the “% Inhibition” value read?
Its value is 8%.

And the Z score?
Its Z score is -0.74.

What does the source list for COc1ccccc1CCNC(=O)c1ccn2cnnc2c1?
% Inhibition: 7%; Z score: -0.73

Which “% Inhibition” value does the source give for Cc1ccc2c(c1)-c1c(ssc1=S)C(C)(C)N2C(=O)c1cccnc1 here?
The value was 8%.

And the Z score?
Its Z score is -1.49.

How did the “% Inhibition” value turn out when O=C1CCCCCN1CCC(=O)N1CC[C@H](Cc2cccc(CO)c2)C1 was run?
The value was -15%.

And the Z score?
Its Z score is 1.95.

What does the source list for CCCn1ncc(C(=O)N[C@H]2CCN(C)C[C@H]2Cc2ccccc2)c1C?
% Inhibition: -17%; Z score: 1.61

With COCC1CCC(Nc2cc(N3CCOCC3)ccc2C)CC1 (centres undefined) as the compound, how does the “% Inhibition” value read?
Its value is -8%.

And the Z score?
Its Z score is 1.25.

For CC1CCN(C(=O)N2CCN(S(=O)(=O)c3ccccc3)CC2)CC1, which “% Inhibition” value is on record?
Its value is -4%.

And the Z score?
Its Z score is 0.71.

How did the “% Inhibition” value turn out when Cc1ncc(CN2CCC(n3nccc3NC(=O)C3CCCC3)CC2)s1 was run?
The value was -5%.

What about the Z score of the same compound?
The Z score was 0.64.

Which results are given for CC(C)(CNS(=O)(=O)c1ccccc1)CNS(=O)(=O)c1ccccc1?
% Inhibition: -3%; Z score: 0.42

For c1ccc2c(c1)c(NCc1ccc3c(c1)OCO3)nn1cnnc21, which “% Inhibition” value is on record?
Its value is -2%.

And the Z score?
Its Z score is 0.34.

Which “% Inhibition” value does the source give for CCc1nc2n(n1)CCC[C@@H]2NC(=O)c1sc2cccc(F)c2c1C here?
Its value is 2%.

And the Z score?
Its Z score is -0.42.

With C#CCCC1(CCC(=O)N2CC(=O)N(CC3CC3)C2)N=N1 as the compound, how does the “% Inhibition” value read?
The value was -14%.

What about the Z score of the same compound?
The Z score was 1.73.

With CC(C)Cc1cc(CNCc2cnc(N3CCOCC3)nc2)on1 as the compound, how does the “% Inhibition” value read?
The value was -17%.

And the Z score?
The Z score was 3.23.

Which “% Inhibition” value does the source give for O=C1c2cc(Cl)ccc2N[C@]2(C(=O)Nc3ccccc32)N1Cc1ccc(Cl)cc1 here?
The value was -37%.

What about the Z score of the same compound?
Its Z score is 4.29.

O=S(=O)(c1ccccc1)N1CCN(S(=O)(=O)c2ccc3ccccc3c2)CC1 was tested. Which “% Inhibition” value did it give?
Its value is -3%.

And the Z score?
The Z score was 0.34.

For CC[C@@H](CC#N)OC(=O)c1ccc(F)cc1, which “% Inhibition” value is on record?
The value was -11%.

And the Z score?
Its Z score is 1.51.

For CCCn1nnnc1NC(=O)Cc1ccccc1, which “% Inhibition” value is on record?
The value was -10%.

What about the Z score of the same compound?
The Z score was 1.27.

Which results are given for Cc1ccn([C@@H](C)c2nnc(Nc3ccn(Cc4c(Cl)cccc4Cl)n3)s2)n1?
% Inhibition: 33%; Z score: -0.29

Which results are given for N#CCC(=O)N(Cc1cccc(Br)c1)C1CCOCC1?
% Inhibition: 1%; Z score: -0.09

Cn1c(-c2cc(-c3ccc(Br)cc3)nc3ccccc23)nc2ccccc21 was tested. Which “% Inhibition” value did it give?
The value was -11%.

And the Z score?
The Z score was 1.89.

Which results are given for COc1ccc(C)cc1N1C(=O)N[C@@H](CO)C1=O?
% Inhibition: -3%; Z score: 0.44

How did the “% Inhibition” value turn out when Cn1nc(-c2cc(F)cc(C(F)(F)F)c2)nc1N1CCCCC1 was run?
The value was -6%.

What about the Z score of the same compound?
The Z score was 0.77.

Which results are given for CC(C)c1ccccc1OCC(O)CN1C(=O)NC(C)(CCc2ccc(OC(F)F)cc2)C1=O (centres undefined)?
% Inhibition: -7%; Z score: 1.35

Cc1cc(CC(=O)N2CCC3(CCC3)C2)n[nH]1 was tested. Which “% Inhibition” value did it give?
Its value is -7%.

And the Z score?
The Z score was 0.88.

What does the source list for CCn1cc(S(=O)(=O)N[C@@H](C)c2cccc(-n3cccn3)c2)cn1?
% Inhibition: -7%; Z score: 1.31

Which “% Inhibition” value does the source give for Cc1nc2cccc(NC(=O)COc3ccc(Cl)cc3Cl)c2o1 here?
The value was -14%.

What about the Z score of the same compound?
The Z score was 1.84.
